Screen size: about 150,000 compounds; about 540 (0.36%) showed an effect of 50% or more. This is one part of the list.

The experiment relates to Plasmodium falciparum. Kind of experiment: Primary screen in NF54 nanoGlo assay, in single point, at 2uM, 72h; a lower Z score goes with more inhibition. Format: functional, Erythrocyte. The conditions noted are these: timepoint 72 hour.
Turning to `Cc1ccccc1OCCc1ncnn1C(C)(C)C`, the “% Inhibition” value is given as -7% and the Z score was found to be 0.74.

In the case of `CCOC(=O)n1ccc(C(=O)Nc2cc(C)ccn2)n1`, the “% Inhibition” value is -1% and the Z score is given as 0.17.

With `COCC[C@H]1CCCCN1C(=O)Nc1ccc(-n2ccnc2)c(Cl)c1`, the “% Inhibition” value is on record as -1% and the Z score is on record as 0.15.

Regarding `CC1(C)CN(C(=O)c2ccc(C#N)s2)CCN1`, the “% Inhibition” value is -10% and the Z score is on record as 1.28.

Turning to `COc1cc(F)c(CN(Cc2cnn(C)c2)C2CC2)cc1OC`, the “% Inhibition” value was found to be 0% and the Z score came out at 0.05.

Consider `O=C(Cn1c(=O)n(C2CC2)c(=O)c2snc(-c3ccccn3)c21)NCc1ccccc1`, for which the “% Inhibition” value is reported as 36% and the Z score was -4.61.

As to `Cc1cccc(C)c1Oc1ncccc1CNC(=O)[C@H]1CCNC1`, the “% Inhibition” value is reported as 2% and the Z score was -0.34.

As for `O=C(Nc1cccc2cccnc12)c1ccc2c(c1)OCCO2`, the “% Inhibition” value worked out at 1% and the Z score is listed as -0.14.

As for `COc1nc2c(cc1CNC(=O)[C@@H]1CCCCO1)C(=O)N(C1CCCC1)C2`, the “% Inhibition” value was -8% and the Z score is given as 1.17.

As for `CC(C)c1noc([C@H]2CCCN(C(=O)c3[nH]nc4c3CCC4)C2)n1`, the “% Inhibition” value is given as 4% and the Z score is -0.62.

With `CCCN1C(=O)N[C@@H](CC(=O)N2CCC(OCC)CC2)C1=O`, the “% Inhibition” value is listed as -1% and the Z score is reported as 0.18.

For `Nc1ncccc1CNC(=O)COC[C@H]1CCCO1`, the “% Inhibition” value is recorded as -13% and the Z score was found to be 2.16.

For the compound `CCNc1ccc(S(N)(=O)=O)cc1C(F)(F)F`, the “% Inhibition” value is -16% and the Z score is given as 1.37.

For the compound `CCN1CCN(c2nc(O)c3c(n2)NC(=O)C[C@H]3c2ccc(O)c(OC)c2)CC1`, the “% Inhibition” value is recorded as -13% and the Z score worked out at 1.92.

On to `CC1CN(Cc2cn(C(C)(C)C)nn2)CCC1O` (stereo not drawn), for which the “% Inhibition” value was determined as 2% and the Z score was -0.25.

On to `Cc1nsc(NC[C@H](O)COc2cccc(C(F)(F)F)c2)n1`, for which the “% Inhibition” value is listed as -2% and the Z score is reported as 0.19.

In the case of `COc1cccc2nc(C[C@H]3CN(S(=O)(=O)c4ccccc4)CC[C@H]3CC(=O)O)[nH]c12`, the “% Inhibition” value was -10% and the Z score amounted to 1.62.

For `Cn1c2c(c(C#N)c1NC(=O)CN1CCCCCC1)CCCC2`, the “% Inhibition” value was -12% and the Z score is on record as 1.47.

With `C[C@H](NC(=O)Nc1ccc(-n2cnnn2)cc1)c1cnn(C)c1`, the “% Inhibition” value is -12% and the Z score turned out to be 1.35.

In the case of `Nc1cccc(C(=O)N2CCCC[C@@H]2CCc2ccccc2)n1`, the “% Inhibition” value is -5% and the Z score came to 0.73.

As to `COc1ccc(-c2csc3ncnc(NC[C@](C)(O)c4cnn(C)c4)c23)cc1`, the “% Inhibition” value was -15% and the Z score stood at 1.72.

Regarding `COc1nccnc1N1CCC2(CC1)CC(=O)N(C/C=C/c1ccccc1)C2`, the “% Inhibition” value is listed as -12% and the Z score was 1.25.

Turning to `Cc1c(CN2CCN(C)C3(CCN(C)CC3)C2)[nH]c2ccc(F)cc12`, the “% Inhibition” value came out at 13% and the Z score is listed as -2.47.

Turning to `CN(Cc1ccccc1)C(=O)CN(c1ccc(OCc2ccccc2)cc1)S(C)(=O)=O`, the “% Inhibition” value is given as -35% and the Z score came to 4.09.

Usually % Inhibition stands for the relative decrease from the control value, in per cent.
